Measurements taken from the supplement of paper PMC11060735.
Several values for one entry are separate records, joined by “and”; a condition that tells them apart may be missing. Equal values may be shown once. Where a name gives a salt, the structure may show the parent alone. Among all 1,800 compounds or so, about 50 (3%) showed activity. The list shows a part of the results.

System: mouse p16Ink4a+/- lung fibroblasts (INKBRITE, bleomycin-injured)
Assay: percentage of GFP+ (p16Ink4a+) fibroblasts among all cells in well; higher = less depletion of p16Ink4a+ cells, active = 20 or less
Conditions: 1 µM; 3 days
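Also: fibroblasts sorted 14 days after bleomycin, GFP+ and GFP− mixed 1:1 in 384-well plates (GFP− as in-well control), imaged after Hoechst and NucView530 staining, reference wells lacked compound.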

SMILES | percentage of GFP+
C[C@]12CC[C@H]3[C@@H](CC[C@@]45O[C@@H]4C(O)=C(C#N)C[C@]35C)[C@@H]1CC[C@@H]2O [Trilostane] | inactive: 44%
C[C@]12CC[C@H](O)CC1=CC[C@@H]1[C@@H]2CC[C@]2(C)C(=O)CC[C@@H]12 [Prasterone] | inactive: 39%
CN1CCCCC1Cn1cc(C(=O)c2cc([N+](=O)[O-])ccc2I)c2ccccc21 (stereo not drawn) | inactive: 39.9%
Cc1cc(SCc2sc(-c3ccc(C(F)(F)F)c(F)c3)nc2C)ccc1OCC(=O)O | inactive: 45%
CC(C)[C@]12O[C@H]1[C@@H]1O[C@]13[C@]1(O[C@H]1C[C@H]1C4=C(CC[C@@]13C)C(=O)OC4)[C@@H]2O [Triptolide] | active: 4.17%
C/C=C(\C)C(=O)N[C@@H](c1ccccc1)[C@@H](O)C(=O)O[C@H]1C[C@@]2(O)[C@@H](OC(=O)c3ccccc3)[C@@H]3[C@]4(OC(C)=O)CO[C@@H]4C[C@H](O)[C@@]3(C)C(=O)[C@H](OC(C)=O)C(=C1C)C2(C)C [Cephalomannine] | inactive: 24.8%
C[N+]1(C)[C@@H]2C[C@@H](OC(=O)[C@H](CO)c3ccccc3)C[C@H]1[C@@H]1O[C@@H]12 [Methscopolamine Bromide] | inactive: 37.9%
Oc1nc2ccc(Cl)cc2c(N[C@@H]2CN3CCC2CC3)c1-c1nc2ccccc2[nH]1 | inactive: 20.3%
C[N+](C)(C)CCCCCCCCCC[N+](C)(C)C [Decamethonium] | inactive: 58.1%
Cc1cccc([C@H](C)c2c[nH]cn2)c1C [Dexmedetomidine] | inactive: 46.8%
O=C(Oc1ccc([N+](=O)[O-])cc1)N1CCC(C(O)(c2ccc3c(c2)OCO3)c2ccc3c(c2)OCO3)CC1 | inactive: 55.8%
O=P1(NCCCl)OCCCN1CCCl (stereo not drawn) [Ifosfamide] | inactive: 45.7%
COc1ccc(CC2NCCc3cc(OC)c(OC)cc32)cc1OC (stereo not drawn) [Tetrahydropapaverine HCl] | inactive: 24.2%
COc1ccc(C(CN(C)C)C2(O)CCCCC2)cc1 (stereo not drawn) [Venlafaxine, Venlafaxine Hydrochloride] | inactive: 42%
O=C(O)c1nn(Cc2ccc(Cl)cc2Cl)c2ccccc12 [Lonidamine] | inactive: 40.7%
Cc1ccccc1-n1c(Cn2ncc3c(N)ncnc32)nc2cccc(C)c2c1=O | inactive: 38.7%
CN(C)Cc1c[nH]c2ccccc12 [Gramine] | inactive: 35.9%
CCN1CCN(C(=O)Cc2ccc(Nc3ncc(F)c(Nc4ccc(C(=O)Nc5ccccc5Cl)cc4)n3)cc2)CC1 [Aurora A Inhibitor I] | inactive: 38.8%
CN1CCc2cc3c(cc2[C@H]1[C@@H]1OC(=O)c2c1ccc1c2OCO1)OCO3 [Bicuculline] | inactive: 41.7%
C[C@@H]1[C@H](O)[C@@H](C)/C=C/C=C/CC/C=C/C=C/C=C/C=C/[C@H](O[C@H]2O[C@@H](C)[C@H](O)[C@@H](N)[C@H]2O)C[C@@H]2O[C@](O)(C[C@@H](O)[C@H](O)CC[C@@H](O)C[C@@H](O)C[C@@H](O)CC(=O)O[C@H]1C)C[C@H](O)[C@H]2C(=O)O [Nystatin (Fungicidin)] | inactive: 43.1%
CC(C)(C)[C@]1(O)C[C@@H]2OC(=O)C[C@@]23C(=O)O[C@@H]2OC(=O)[C@H](O)C213 (stereo partly drawn) [Bilobalide] | inactive: 47.1%
C=C[C@H]1CN2CCC1C[C@H]2[C@H](O)c1ccnc2ccccc12 (stereo partly drawn) [Cinchonidine] | inactive: 41.1%
C[C@@H]1O[C@@H](O[C@H]2C[C@@H](O)[C@]3(CO)[C@H]4[C@H](O)C[C@]5(C)[C@@H](C6=CC(=O)OC6)CC[C@]5(O)[C@@H]4CC[C@]3(O)C2)[C@H](O)[C@H](O)[C@H]1O [Ouabain] | inactive: 50.5%

SMILES | percentage of GFP+
C/C(=C\c1csc(C)n1)[C@@H]1C[C@@H]2O[C@@H]2CCC[C@H](C)[C@H](O)[C@@H](C)C(=O)C(C)(C)[C@@H](O)CC(=O)O1 [Epothilone A] | inactive: 34.7%
C=CCN1CC[C@]23c4c5ccc(O)c4O[C@H]2C(=O)CC[C@@]3(O)[C@H]1C5 [Naloxone] | inactive: 44.1%
COc1cc(OC)c(OC)cc1C=O [Asarylaldehyde] | inactive: 51.5%
Cc1cc(C(=O)CN2CCCC2)c(C)n1-c1ccc(F)cc1 | inactive: 51.3%
Cc1cccc(C(C)c2c[nH]cn2)c1C (stereo not drawn) [Medetomidine HCl] | inactive: 37.5%
CN1[C@@H]2CC[C@H]1C[C@@H](OC(=O)C(CO)c1ccccc1)C2 (stereo partly drawn) [Atropine] | inactive: 33.7%
CC(=O)OCC1=C(C(=O)O)N2C(=O)[C@H](N)[C@H]2SC1 [7-Aminocephalosporanic acid] | inactive: 40.5%
CCC1(c2cccc(O)c2)CCCCN(C)C1 (stereo not drawn) [Meptazinol HCl] | inactive: 51.1%
c1ccc2c(c1)sc1ccccc12 [Dibenzothiophene] | inactive: 48.2%
CC(O)(CS(=O)(=O)c1ccc(F)cc1)C(=O)Nc1ccc(C#N)c(C(F)(F)F)c1 (stereo not drawn) [(r)-bicalutamide, Bicalutamide] | inactive: 48.4%
Cc1cc(O)ccc1Cl [Chlorocresol] | inactive: 50.5%
COc1cc(-n2c(=S)[nH]c3ccccc3c2=O)c(Cl)cc1Cl [Mdivi-1] | inactive: 43.5%
Cc1cc(C(C#N)c2ccc(Cl)cc2)c(Cl)cc1NC(=O)c1cc(I)cc(I)c1O (stereo not drawn) [Closantel] | inactive: 46.5% and inactive: 50.1%
C[C@]12CC[C@H](O)C[C@@H]1CC[C@@H]1[C@@H]2CC[C@]2(C)C(=O)CC[C@@H]12 [Epiandrosterone] | inactive: 50.6%
Nc1nc(N)nc(NC2CC2)n1 [Cyromazine] | inactive: 39.5%
CC(=O)Nc1ccc(Cc2ccc(NC(C)=O)cc2)cc1 | inactive: 44.5%
O=S(=O)(F)Cc1ccccc1 | inactive: 54%
Cn1cc(C2=C(c3cn(C4CCN(Cc5ccccn5)CC4)c4ccccc34)C(=O)NC2=O)c2ccccc21 [Enzastaurin] | inactive: 52.8%
CN1[C@@H]2C[C@@H](O)C[C@H]1[C@@H]1O[C@@H]12 [Scopine HCl] | inactive: 42% and inactive: 40.5%
C=C1C[C@@H]2[C@H](CC[C@]3(C)C(=O)CC[C@@H]23)[C@@]2(C)C=CC(=O)C=C12 [Exemestane] | inactive: 36.2%
NCCc1c[nH]c2ccc(O)cc12 [Serotonin Hydrochloride] | inactive: 46.3%
O=C1CC[C@@]2(O)[C@H]3Cc4ccc(O)c5c4[C@@]2(CCN3CC2CC2)[C@H]1O5 [Naltrexone;  _x000D_  naltrexone depot] | inactive: 40.2%
Cc1ccc(-n2nccn2)c(C(=O)N2CCN(c3nc4cc(Cl)ccc4o3)CC[C@H]2C)c1 [Suvorexant] | inactive: 39.7%

SMILES | percentage of GFP+
COc1ccc(C(=O)N2CCCC2=O)cc1 [Aniracetam] | inactive: 48.5%
CCCC[N+]1(C)[C@@H]2C[C@@H](OC(=O)[C@H](CO)c3ccccc3)C[C@H]1[C@@H]1O[C@@H]12 (stereo partly drawn) [Scopolamine butylbromide] | inactive: 34.4%
NC(=O)CN1CCCC1=O [Piracetam] | inactive: 47.8%
C[C@@H]1CC[C@@]2(OC1)O[C@H]1C[C@H]3[C@@H]4CC=C5C[C@@H](O[C@@H]6O[C@H](CO)[C@@H](O[C@@H]7O[C@@H](C)[C@H](O)[C@@H](O)[C@H]7O)[C@H](O)[C@H]6O[C@@H]6O[C@@H](C)[C@H](O)[C@@H](O)[C@H]6O)CC[C@]5(C)[C@H]4CC[C@]3(C)[C@H]1[C@@H]2C [Dioscin] | inactive: 32.7%
CN1C2CCC1CC(OC(=O)[C@H](CO)c1ccccc1)C2 (stereo partly drawn) [Hyoscyamine] | inactive: 46.3%
CCC1=C[C@@H]2CN3CCc4c([nH]c5ccccc45)[C@@](C(=O)OC)(C2)[C@@H]13 [Catharanthine] | inactive: 47.9%
CN1CCC(c2c[nH]c3ccc(O)cc23)CC1 | inactive: 45.6%
O=C1CCC[C@@H]2[C@H]3CCCN4CCC[C@@H](CN12)[C@@H]34 [(+)-Matrine] | inactive: 45.5%
O=c1ccc2cc(O[C@@H]3O[C@H](CO)[C@@H](O)[C@H](O)[C@H]3O)c(O)cc2o1 [Esculin] | inactive: 41.7%
NCC(O)c1ccc(O)cc1 (racemic) [(¬±)-octopamine Hydrochloride, Octopamine Hydrochloride] | inactive: 42.7%
Cc1cccc(C)c1NC1=NCCCS1 [Xylazine Hydrochloride, Xylazine] | inactive: 39.9%
C[C@](O)(COc1ccc(C#N)cc1)C(=O)Nc1ccc(C#N)c(C(F)(F)F)c1 | inactive: 43.3%
CCC(COC(=O)c1cc(OC)c(OC)c(OC)c1)(c1ccccc1)N(C)C (stereo not drawn) [Trimebutine] | inactive: 42.6%
C=CC[C@]1(O)CC[C@H]2[C@@H]3CCC4=CC(=O)CCC4=C3C=C[C@@]21C [Altrenogest] | inactive: 48.5%
N[C@@H]1C[C@H]1c1ccccc1 [Tranylcypromine (2-PCPA) HCl] | inactive: 47.5%
Cc1cc2c(C(C)C)c(O)c(O)c(C=O)c2c(O)c1-c1c(C)cc2c(C(C)C)c(O)c(O)c(C=O)c2c1O [Gossypol] | inactive: 48.8% and inactive: 49.7%
CCN(C)C(=O)Oc1cccc([C@H](C)N(C)C)c1 [Rivastigmine] | inactive: 48.3%
C1=C2CCCN[C@H]2[C@@H]2C[C@H]1[C@H]1CCCCN1C2 [Aloperine] | inactive: 44.4%
CNCC(=O)c1ccc(O)c(O)c1 [Adrenolone Hydrochloride] | inactive: 42%
CC(C)N(CCNC(=O)CN1CCCC1=O)C(C)C [Pramiracetam] | inactive: 39.9%
CCOc1ccccc1-n1c(C(C)N2CCN(C(=O)COc3ccc(Cl)cc3)CC2)nc2ccccc2c1=O (stereo not drawn) [Erastin] | inactive: 34.3%
COC(=O)C1=CCCN(C)C1 [Arecoline] | inactive: 45.2%
